The source gives no read counts; variants with many changes may rest on few reads.

Sequences and labels used below:
B1: OR4K15 (parent)
chain: GUUAACGGUCAUAGGCCAUGGAAACUAGGAGCACCAUUUCGCUGCCAGUGAAGAAAUGAACAAAGAAAAUCUGGGCCAGGCAGGCAUCAAAAGAAAUAGUCUUGCGCUCAACCAGAAAGUCUGUAAUCAUUUUAAGGGUA

The data set covers variants of B1. In words: self-cleavage, relative activity (ratio to wild type); higher = more cleavage; in vitro, sequencing; the parent is a self-cleaving ribozyme.
GUUAACGGUCAUAGGCCAUGGAAACUAGGAGCACCAUUUCGCUGCCAGUGAAGAAAUGAACAAAGAAAAUCUGGGCCAGGCAGGCAUCAAAAGAAAUGGUCUUGCGCUCAGCCAGAAAGUUUGUAAUCAUUUUAAGGGUA [A98G A111G C121U]: the self-cleavage was determined as 0.02. The value for GUUAACGGUCAUAGGCCAUGGAAACUAGGAGCACCAUUUCGCUGCCAGUGAAGAAAUGAACAAAGAAAAUCUGGGCCAGGCAGGCAUCAAAAGAAGUAGUCUUGCGCUCAACCAGAAAGUCUGUAGUCUUUCUAAGGGUA [A96G A126G A129U U132C] was 0.25; that for GUUAACGGUCAUAGGCCAUGGAAACUAGGAGCACCAUUUCGCUGCCAGUGAAGAAAUGAACAAAGAAAAUCUGGGCCAGGCAGGCAUCAAAAGAAUUAGUCAUGCGCUCAACCAGGAAGUCUGUAAUCAUUUUAAGGGUA [A96U U102A A116G] was 0.25. For GUUAACGGUCAUAGGCCAUGGAAACUAGGAGCACCAUUUCGCUGCCAGUGAAGAAAUGAACAAAGAAAAUCUGGGCCAGGCAGGCAUCAAAAGAAAUGGUCUUGCGCUCAACCAGAGAGUCUGUAAUCAUUUUAAGGGUG [A98G A117G A140G], the self-cleavage was determined as 0.19.

GUUAACGGUCAUAGGCCAUGGAAACUAGGAGCACCAUUUCGCUGCCAGUGAAGAAAUGAACAAAGAAAAUCUGGGCCAGGCAGGCAUCAAAAGAAGUAGUCUUACGCUCAACCAGAAAGACUGUAAUCAUUUUAAGGGUA [A96G G104A U120A]: the self-cleavage is 0.06. Turning to GUUAACGGUCAUAGGCCAUGGAAACUAGGAGCACCAUUUCGCUGCCAGUGAAGAAAUGAACAAAGAAAAUCUGGGCCAGGCAGGCAUCAAAAGAAAUGGUCUUGCGCUCAACCAGAAGGUCUGUAAUCAUUUUAAGGGCA [A98G A118G U139C], the self-cleavage worked out at 0.28.

Regarding GUUAACGGUCAUAGGCCAUGGAAACUAGGAGCACCAUUUCGCUGCCAGUGAAGAAAUGAACAAAGAAAAUCUGGGCCAGGCAGGCAUCAAAAGAGAUAGUCCUGCGCUCAACCAGAAAGUCUGUAAUCAUUAUAAGGGUA [A95G U102C U132A], the self-cleavage came to 2.92. Regarding GUUAACGGUCAUAGGCCAUGGAAACUAGGAGCACCAUUUCGCUGCCAGUGAAGAAAUGAACAAAGAAAAUCUGGGCCAGGCAGGCAUCAAAAGAAAUUGUCUUGCGCUCCGCCAGAAAGUCUGUAAUCAUUUUAAGGGUA [A98U A110C A111G], the self-cleavage was 0. The result for GUUAACGGUCAUAGGCCAUGGAAACUAGGAGCACCAUUUCGCUGCCAGUGAAGAAAUGAACAAAGAAAAUCUGGGCCAGGCAGGCAUCAAAAGAAGUAGUCUUGCGCUCAACCAGAAAGACUGUAAUCAUUCUAAGGGUA [A96G U120A U132C] reads 2.03. The value for GUUAACGGUCAUAGGCCAUGGAAACUAGGAGCACCAUUUCGCUGCCAGUGAAGAAAUGAACAAAGAAAAUCUGGGCCAGGCAGGCAUCAAAAGAGAUAGUCUUGCGCUCAACCAGAAAGCCUGUAAUUAAUUUAAGGGUA [A95G U120C C128U U130A] was 1.27; that for GUUAACGGUCAUAGGCCAUGGAAACUAGGAGCACCAUUUCGCUGCCAGUGAAGAAAUGAACAAAGAAAAUCUGGGCCAGGCAGGCAUCAAAAGAAAUGGUCUUGCGCUCAACCAGAAAGUCUGUAAUCUUUUUAGGGGUA [A98G A129U A135G] was 0.26; that for GUUAACGGUCAUAGGCCAUGGAAACUAGGAGCACCAUUUCGCUGCCAGUGAAGAAAUGAACAAAGAAAAUCUGGGCCAGGCAGGCAUCAAAAGAAGUAGUCUUGCGCUCAGCCAGAAAGUCUGUAAACAUUUUAAGGGUA [A96G A111G U127A] was 0.02. The value for GUUAACGGUCAUAGGCCAUGGAAACUAGGAGCACCAUUUCGCUGCCAGUGAAGAAAUGAACAAAGAAAAUCUGGGCCAGGCAGGCAUCAAAAGAAACAGGCUUGCGCUCAACCAGAAAGUCUGCAAUCAUUUUAAGGGUA [U97C U100G U124C] was 1.16; that for GUUAACGGUCAUAGGCCAUGGAAACUAGGAGCACCAUUUCGCUGCCAGUGAAGAAAUGAACAAAGAAAAUCUGGGCCAGGCAGGCAUCAAAAGAAAAAGUCUUGUGCUCAACCAGAAUGUCCGUAAUCAUUUUAAGGGUA [U97A C105U A118U U122C] was 0.04; that for GUUAACGGUCAUAGGCCAUGGAAACUAGGAGCACCAUUUCGCUGCCAGUGAAGAAAUGAACAAAGAAAAUCUGGGCCAGGCAGGCAUCAAAAGAAUUAGUCUUGCGCUCGACCAGAAUGUCUGUAAUCAUUUUAAGGGUA [A96U A110G A118U] was 0.03. As to GUUAACGGUCAUAGGCCAUGGAAACUAGGAGCACCAUUUCGCUGCCAGUGAAGAAAUGAACAAAGAAAAUCUGGGCCAGGCAGGCAUCAAAAGAAGCAGUCUUGCGCUCAACCAGGAAGUCUGUAAUCAUUCUAAGGGUA [A96G U97C A116G U132C], the self-cleavage was determined as 0.05. In the case of GUUAACGGUCAUAGGCCAUGGAAACUAGGAGCACCAUUUCGCUGCCAGUGAAGAAAUGAACAAAGAAAAUCUGGGCCAGGCAGGCAUCAAAAGAAACAGUCUUGCGCUCAUCCAGAAAGUCUGUAAUCAUUUUAGGGGUA [U97C A111U A135G], the self-cleavage was 0. Regarding GUUAACGGUCAUAGGCCAUGGAAACUAGGAGCACCAUUUCGCUGCCAGUGAAGAAAUGAACAAAGAAAAUCUGGGCCAGGCAGGCAUCAAAAGAAGUAGUCUCGCGCUCAACCAGAAAGUCUGUAGUCAUUUUAAGGGUA [A96G U103C A126G], the self-cleavage was found to be 0.58. The result for GUUAACGGUCAUAGGCCAUGGAAACUAGGAGCACCAUUUCGCUGCCAGUGAAGAAAUGAACAAAGAAAAUCUGGGCCAGGCAGGCAUCAAAAGAGAUAGUCUUGCACUCAUCCAGAAAGUCUGUAAUCAUUUUAAGGGUA [A95G G106A A111U] reads 0.01.

Take GUUAACGGUCAUAGGCCAUGGAAACUAGGAGCACCAUUUCGCUGCCAGUGAAGAAAUGAACAAAGAAAAUCUGGGCCAGGCAGGCAUCAAAAGAGAUAGUCUUGCGCUCAACCAGAAAGCCUGUAAUCAUUUUAAGAGUA [A95G U120C G137A]: the self-cleavage is 0.94.

As for GUUAACGGUCAUAGGCCAUGGAAACUAGGAGCACCAUUUCGCUGCCAGUGAAGAAAUGAACAAAGAAAAUCUGGGCCAGGCAGGCAUCAAAAGAAGUAGCCUUGCGCUCAACCAGAAAGUCUGUAAUCAUUUUAAGAGUA [A96G U100C G137A], the self-cleavage amounted to 1.48.

For the variant GUUAACGGUCAUAGGCCAUGGAAACUAGGAGCACCAUUUCGCUGCCAGUGAAGAAAUGAACAAAGAAAAUCUGGGCCAGGCAGGCAUCAAAAGAAGUAGUCUUGCGCUCAACGAGAAAGUCUGUAAUCAUCUUAAGGGUA [A96G C113G U131C], the self-cleavage is 0.01. The value for GUUAACGGUCAUAGGCCAUGGAAACUAGGAGCACCAUUUCGCUGCCAGUGAAGAAAUGAACAAAGAAAAUCUGGGCCAGGCAGGCAUCAAAAGAAGUAGCCUUGCGCUCAACCAGAAGGUCUGUAAUCAUUUUAAGGGUA [A96G U100C A118G] was 1.75; that for GUUAACGGUCAUAGGCCAUGGAAACUAGGAGCACCAUUUCGCUGCCAGUGAAGAAAUGAACAAAGAAAAUCUGGGCCAGGCAGGCAUCAAAAGAAAUGGUCUCGCGCUCAACCAGAAAGUCUGUAAUCAUUCUAAGGGUA [A98G U103C U132C] was 0.17. The result for GUUAACGGUCAUAGGCCAUGGAAACUAGGAGCACCAUUUCGCUGCCAGUGAAGAAAUGAACAAAGAAAAUCUGGGCCAGGCAGGCAUCAAAAGAUAUAGUCUUGCGCUCAGCCAGAGGGUCUGUAAUCAUUUUAAGGGUA [A95U A111G A117G A118G] reads 0.02; that for GUUAACGGUCAUAGGCCAUGGAAACUAGGAGCACCAUUUCGCUGCCAGUGAAGAAAUGAACAAAGAAAAUCUGGGCCAGGCAGGCAUCAAAAGAUGUAGUCUUGCGUUCAACCAGAAAGUCUGUAACCAUUUUAAGGGUA [A95U A96G C107U U127C], 0; that for GUUAACGGUCAUAGGCCAUGGAAACUAGGAGCACCAUUUCGCUGCCAGUGAAGAAAUGAACAAAGAAAAUCUGGGCCAGGCAGGCAUCAAAAGAAAUGGUCUUGCGCUCAACCAGAAGGUCUGUAAUCAUAUUAAGGGUA [A98G A118G U131A], 0.03.

Take GUUAACGGUCAUAGGCCAUGGAAACUAGGAGCACCAUUUCGCUGCCAGUGAAGAAAUGAACAAAGAAAAUCUGGGCCAGGCAGGCAUCAAAAGAAGUAGUCUUGCGCUCAACCAGAAAGUCUGUAAUCACUUUAGGGGUA [A96G U130C A135G]: the self-cleavage was found to be 0.69.

On to GUUAACGGUCAUAGGCCAUGGAAACUAGGAGCACCAUUUCGCUGCCAGUGAAGAAAUGAACAAAGAAAAUCUGGGCCAGGCAGGCAUCAAAAGAAGUAGCCCUGCGCUCAACCAGAAAGUCUGUAAUCAUUUUAAGGGUA [A96G U100C U102C], for which the self-cleavage came to 2.47.

With GUUAACGGUCAUAGGCCAUGGAAACUAGGAGCACCAUUUCGCUGCCAGUGAAGAAAUGAACAAAGAAAAUCUGGGCCAGGCAGGCAUCAAAAGAAUUAGUCUUGCGCUCAACCAGAAAGUCCGUCAUCGUUUUAAGGGUA [A96U U122C A125C A129G], the self-cleavage was found to be 1.24.

As for GUUAACGGUCAUAGGCCAUGGAAACUAGGAGCACCAUUUCGCUGCCAGUGAAGAAAUGAACAAAGAAAAUCUGGGCCAGGCAGGCAUCAAAAGAAGUAGUCUCGCGCUCAACCAGAAAGUCUGUAAUCAUCUUAAGGGUA [A96G U103C U131C], the self-cleavage was found to be 0.67. GUUAACGGUCAUAGGCCAUGGAAACUAGGAGCACCAUUUCGCUGCCAGUGAAGAAAUGAACAAAGAAAAUCUGGGCCAGGCAGGCAUCAAAAGAAGUAGUCUUGCGCCCAACCAGAAAGUCUGUAAUCGUUUUAAGGGUA [A96G U108C A129G]: the self-cleavage is 0. The result for GUUAACGGUCAUAGGCCAUGGAAACUAGGAGCACCAUUUCGCUGCCAGUGAAGAAAUGAACAAAGAAAAUCUGGGCCAGGCAGGCAUCAAAAGAGAUAGUCCUGCGCUCAACCAGAAAGUCUGUAGUCAUUAUAAGGGUA [A95G U102C A126G U132A] reads 1.57. The value for GUUAACGGUCAUAGGCCAUGGAAACUAGGAGCACCAUUUCGCUGCCAGUGAAGAAAUGAACAAAGAAAAUCUGGGCCAGGCAGGCAUCAAAAGAAAAGGUCUUGCGCUCAACCAGAAAGUCUGUAAUCAUUUCAAGGGUA [U97A A98G U133C] was 1.88; that for GUUAACGGUCAUAGGCCAUGGAAACUAGGAGCACCAUUUCGCUGCCAGUGAAGAAAUGAACAAAGAAAAUCUGGGCCAGGCAGGCAUCAAAAGAAAAAGUCUUGCGCUCGACCAGGAAGUCUGUAGUCAUUUUAAGGGUA [U97A A110G A116G A126G] was 0. The value for GUUAACGGUCAUAGGCCAUGGAAACUAGGAGCACCAUUUCGCUGCCAGUGAAGAAAUGAACAAAGAAAAUCUGGGCCAGGCAGGCAUCAAAAGAAGUAGUCUUACGCUCAACCAGAAAGUCAGUAAUCAUUUUAAGGGUA [A96G G104A U122A] was 0.01; that for GUUAACGGUCAUAGGCCAUGGAAACUAGGAGCACCAUUUCGCUGCCAGUGAAGAAAUGAACAAAGAAAAUCUGGGCCAGGCAGGCAUCAAAAGAGAUAGUCUUGCGCACAACCAGAAAGUCUGUUAUCAUUUUAAGGGUA [A95G U108A A125U] was 0. GUUAACGGUCAUAGGCCAUGGAAACUAGGAGCACCAUUUCGCUGCCAGUGAAGAAAUGAACAAAGAAAAUCUGGGCCAGGCAGGCAUCAAAAGAAAUGGUCUUGCGUUCAACCAGAAAGUCUGUAAUCAUUUUAGGAGUA [A98G C107U A135G G137A]: the self-cleavage came to 0. The value for GUUAACGGUCAUAGGCCAUGGAAACUAGGAGCACCAUUUCGCUGCCAGUGAAGAAAUGAACAAAGAAAAUCUGGGCCAGGCAGGCAUCAAAAGAGAUAGUCCUGCGCUCAACCAGAAAGUCUGUGAUCAUUUUAAGGGUA [A95G U102C A125G] was 0.51; that for GUUAACGGUCAUAGGCCAUGGAAACUAGGAGCACCAUUUCGCUGCCAGUGAAGAAAUGAACAAAGAAAAUCUGGGCCAGGCAGGCAUCAAAAGAAGUAGUCUUGCGCUCAACCAGAAAGUCUGAAGUCAUUUUAAGGGUA [A96G U124A A126G] was 1.17; that for GUUAACGGUCAUAGGCCAUGGAAACUAGGAGCACCAUUUCGCUGCCAGUGAAGAAAUGAACAAAGAAAAUCUGGGCCAGGCAGGCAUCAAAAGAGAUAGUCUCGCGCUCAACCAGAAAGUCUGUAAUCAUUCUAAGGGUA [A95G U103C U132C] was 0.86.

The record behind these values is the RNAGym collection of RNA variant scans (doi:10.7554/elife.90254).
